The record followed here is PMC6530996, “HspB1 phosphorylation regulates its intramolecular dynamics and mechanosensitive molecular chaperone interaction with filamin C” (Science Advances, 2019).

Series [1] concerns the molecule itself. Put plainly: native MS; HspB1_(77–171) variants at 10 μM in 200 mM ammonium acetate pH 6.9, 10-fold molar excess DTT; dimer to monomers.
In series [2] the target is T1, human FLNC domains 18 to 21 (FLNC_(d18–21)), EEF-tagged (human, UniProt Q14315 1943-2408).
T1 construct: human filamin C, domains 18 to 21, residues 1943 to 2408 of UniProt Q14315; Modified pET23a/EEF vector; No cleavage of the tags is described; also called FLNC fragment; source: E. coli BL21(DE3) pLysS, purified (HisTrap, SEC Superdex 200); not shown: EEF, C-terminal, kept
T1 sequence (looked up): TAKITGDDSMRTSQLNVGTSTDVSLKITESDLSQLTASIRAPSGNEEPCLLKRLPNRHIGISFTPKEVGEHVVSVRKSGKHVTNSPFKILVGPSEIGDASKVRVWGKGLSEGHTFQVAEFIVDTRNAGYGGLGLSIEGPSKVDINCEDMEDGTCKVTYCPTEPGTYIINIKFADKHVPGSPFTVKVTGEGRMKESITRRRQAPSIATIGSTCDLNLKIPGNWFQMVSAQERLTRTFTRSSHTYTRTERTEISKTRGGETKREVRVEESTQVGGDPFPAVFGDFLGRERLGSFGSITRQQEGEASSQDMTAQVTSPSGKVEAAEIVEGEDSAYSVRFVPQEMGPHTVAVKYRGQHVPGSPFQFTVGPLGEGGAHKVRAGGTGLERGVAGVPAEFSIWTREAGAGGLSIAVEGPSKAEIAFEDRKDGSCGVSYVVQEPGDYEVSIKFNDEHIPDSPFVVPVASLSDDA
Put plainly: co-sedimentation; HspB1 (WT or 3P) 80 μM with FLNC_(d18–21) 40 μM (2:1) in 200 mM ammonium acetate pH 6.9, 500 μM DTT, 25°C, 90 min; aliquots pelleted at 13,000g; SDS-PAGE densitometry of soluble and pelleted fractions. The following applies: both partners purified.

Series [3] concerns the molecule itself. Put plainly: NMR (1H-15N HSQC spectra); 298 K, 14.1 T; 0.9 to 1 mM protein, 30 mM sodium phosphate, 2 mM EDTA pH 7.0; dimer.
Series [4] concerns the molecule itself. Put plainly: crystal structure; HspB1_(84–170) 16 mg/ml with 5 mM peptide in PBS pH 7.0; 22% PEG 3350, 0.02 M sodium potassium diphosphate, 0.1 M bis-tris propane pH 7.5; 2.1 Å, space group P12_(1)1.

B1: HspB1_([…]) 1P (phosphomimic of Ser82) (domain or fragment)
chain: not shown
notes: human HspB1, […], one phosphomimic at Ser82; The legend names the site (Ser82); the methods give the phosphomimic mutation S82D; also called 1P (^PSer^82); not shown: His tag (from the HisTrap purification), N-terminal, cleaved
On to B1, for which the binding result in series [1] is listed as “binds”.

B2: ^3PHspB1, full-length human HspB1 triple phosphomimic (S15D, S78D, S82D) (natural protein)
chain: not shown
notes: human HspB1 (Hsp27), full length, with three phosphomimetic substitutions; source: E. coli BL21(DE3), purified (HisTrap, SUMO hydrolase, SEC Superdex 200); not shown: SUMO, N-terminal, cleaved; His6, N-terminal, cleaved
With B2, the binding result in series [2] was “binds”.

B3: human HspB1 α-crystallin domain, HspB1_([…]) (domain or fragment)
chain: not shown
notes: human HspB1 ACD, […]; pET28d(+) vector; The residual Gly-Ser overhang that the methods tell of 'both proteins' may also stand on this construct; also called HspB1 ACD
For B3, in series [3], the binding result was “binds”.

B4: HspB1_([…]), ACD construct for crystallography (domain or fragment)
chain: not shown
notes: human HspB1 ACD, […] (K171 deleted from the […] construct); Dimer in the crystal (four dimers in the asymmetric unit); The residual Gly-Ser overhang that the methods tell of 'both proteins' may also stand on this construct; also called HspB1 ACD
On to B4, for which, in series [4], the binding result is recorded as “binds”.

B5: HspB1_([…]), wild type (domain or fragment)
chain: not shown
notes: human HspB1, […] (principal phosphorylation region and ACD); Same vector (pET28d(+)) as the ACD construct; also called HspB1_([…]) WT; source: E. coli BL21(DE3), purified; not shown: His tag (from the HisTrap purification), N-terminal, cleaved
With B5, in series [1], the “stoichiometry N” value was 2.

B6: ^2PHspB1_([…]) (phosphomimics of Ser78 and Ser82) (domain or fragment)
chain: not shown
notes: human HspB1, […], phosphomimics at Ser78 and Ser82; For NMR labelled with 15N or 13C,15N; also called 2P (^PSer^78-^PSer^82); not shown: His tag (from the HisTrap purification), N-terminal, cleaved
B6: the binding result in series [1] is “binds”.

Broadly, the stoichiometry N is the number of molecules, sites or subunits per partner or assembly.
